{"source": "paper PMC7645679", "binders": {"B1": {"name": "PDS5B (mouse), mKate2 fusion, Q4VA53 1-1446 (protein)", "chain": "MAHSKTRTNDGKITYPPGVKEISDKISKEEMVRRLKMVVKTFMDMDQDSEEEKELYLNLALHLASDFFLKHPDKDVRLLVACCLADIFRIYAPEAPYTSPDKLKDIFMFITRQLKGLEDTKSPQFNRYFYLLENIAWVKSYNICFELEDSNEIFTQLYRTLFSVINNGHNQKVHMHMVDLMSSIICEGDTVSQELLDTVLVNLVPAHKNLNKQAYDLAKALLKRTAQAIEPYITNFFNQVLMLGKTSISDLSEHVFDLILELYNIDSHLLLSVLPQLEFKLKSNDNEERLQVVKLLAKMFGAKDSELASQNKPLWQCYLGRFNDIHVPIRLECVKFASHCLMNHPDLAKDLTEYLKVRSHDPEEAIRHDVIVSIVTAAKKDILLVNDHLLNFVRERTLDKRWRVRKEAMMGLAQIYKKYSLQSAAGKDAAKQISWVKDKLLHIYYQNSIDDRLLVERIFAQYMVPHNLETTERMKCLYYLYATLDLNAVKALNEMWKCQNLLRHQVKDLLDLIKQPKTDASVKAIFSKVMVITRNLPDPGKAQDFMKKFTQVLEDDEKIRKQLEALVSPTCSCKQAEGCVREITKKLGNPKQPTNPFLEMIKFLLERIAPVHIDTESISALIKQVNKSIDGTADDEDEGVPTDQAIRAGLELLKVLSFTHPISFHSAETFESLLACLKMDDEKVAEAALQIFKNTGSKIEEDFPHIRSALLPVLHHKSKKGPPRQAKYAIHCIHAIFSSKETQFAQIFEPLHKSLDPSNLEHLITPLVTIGHIALLAPDQFAAPLKSLVATFIVKDLLMNDRLPGKKTTKLWVPDEEVSPETMVKIQAIKMMVRWLLGMKNNHSKSGTSTLRLLTTILHSDGDLTEQGKISKPDMSRLRLAAGSAIVKLAQEPCYHEIITLEQYQLCALAINDECYQVRQVFAQKLHKGLSRLRLPLEYMAICALCAKDPVKERRAHARQCLVKNITVRREYLKQHAAVSEKLLSLLPEYVVPYTIHLLAHDPDYVKVQDIEQLKDVKECLWFVLEILMAKNENNSHAFIRKMVENIKQTKDAQGPDDTKMNEKLYTVCDVAMNIIMSKSTTYSLESPKDPVLPARFFTQPDKNFSNTKNYLPPEMKSFFTPGKPKTANVLGAVNKPLSSAGKQSQTKSSRMETVSNASSSSNPSSPGRIKGRLDSSEMDHSENEDYTMSSPLPGKKSDKREDPDLSELEKPRSRKKAPVTDPEEKLGMDDLTKLVQEQKPKGSQRGRKRGRTASDSDEQQWPEEKRHKEELLENEDEQNSPPKKGKRGRPPKPLGGGTSKEEPTMKTSKKGNKKKLVPPVVDDDEEEERQIGNTEHKSKSKQHRTSKRAQQRAESPETSAVESTQSTPQKGRGRPSKAPSPSQPPKKIRVGRSKQVATKENDSSEEMDVLQASSPVSDDTTQEGAEEEDISVGNVRRRSSKRERR"}}, "target": "T1, CTCF (mouse), GFP fusion tethered to the LacO array in the fluorescent three-hybrid assay (mouse), Q61164", "T1 chain": "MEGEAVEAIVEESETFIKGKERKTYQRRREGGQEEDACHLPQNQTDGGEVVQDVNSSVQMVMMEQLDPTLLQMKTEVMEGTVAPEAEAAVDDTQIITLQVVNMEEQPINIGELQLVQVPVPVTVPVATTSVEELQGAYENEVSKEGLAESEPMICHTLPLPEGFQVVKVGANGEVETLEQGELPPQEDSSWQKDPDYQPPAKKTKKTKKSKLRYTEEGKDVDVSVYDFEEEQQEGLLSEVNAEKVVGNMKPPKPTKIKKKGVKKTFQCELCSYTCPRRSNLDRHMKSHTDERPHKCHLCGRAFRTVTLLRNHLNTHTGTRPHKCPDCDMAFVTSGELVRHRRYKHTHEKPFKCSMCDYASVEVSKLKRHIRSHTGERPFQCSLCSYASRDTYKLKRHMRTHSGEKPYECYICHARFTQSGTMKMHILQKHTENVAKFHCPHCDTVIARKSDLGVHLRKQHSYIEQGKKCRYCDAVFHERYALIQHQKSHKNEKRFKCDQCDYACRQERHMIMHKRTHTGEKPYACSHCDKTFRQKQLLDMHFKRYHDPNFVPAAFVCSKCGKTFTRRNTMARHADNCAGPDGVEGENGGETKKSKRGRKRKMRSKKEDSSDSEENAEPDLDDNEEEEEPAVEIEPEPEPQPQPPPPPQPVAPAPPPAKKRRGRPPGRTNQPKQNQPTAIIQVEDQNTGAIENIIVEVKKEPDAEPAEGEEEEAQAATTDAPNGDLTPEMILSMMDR", "experiment": "fluorescent three-hybrid (F3H); GFP-tagged bait tethered to a LacO array by GFP nanobody–LacR in BHK-LacO cells; recruitment of mKate2-tagged prey read as Pearson correlation of green and red channels at the array; cells fixed 24 h after transfection", "details": "remark: other sources report otherwise", "note": "These are yes or no findings as the source states them, for the method shown. Where a sequence is shown, tags or fusion partners need not be part of it.", "data": [{"binder": "B1", "values": [{"measurement": "binding", "value": "no binding"}]}]}
